# Laboratory results reported in publication PMC4336329 (PLoS ONE, 2015).
# Out of some 310,000 compounds screened, about 14,000 (4.5%) showed an effect of 50% or more. The effect is printed as a negative number. The list shows a part of the results.
# Biological target: human ether-à-go-go-related gene (hERG) potassium channel (human, UniProt Q12809)
# Experiment: primary screen, population patch clamp on CHO cells stably expressing hERG
# 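Also: peak tail current of the secondary pulse compared with the same well before compound.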
# Chain of human ether-à-go-go-related gene (hERG) potassium channel (Q12809 whole entry, looked up): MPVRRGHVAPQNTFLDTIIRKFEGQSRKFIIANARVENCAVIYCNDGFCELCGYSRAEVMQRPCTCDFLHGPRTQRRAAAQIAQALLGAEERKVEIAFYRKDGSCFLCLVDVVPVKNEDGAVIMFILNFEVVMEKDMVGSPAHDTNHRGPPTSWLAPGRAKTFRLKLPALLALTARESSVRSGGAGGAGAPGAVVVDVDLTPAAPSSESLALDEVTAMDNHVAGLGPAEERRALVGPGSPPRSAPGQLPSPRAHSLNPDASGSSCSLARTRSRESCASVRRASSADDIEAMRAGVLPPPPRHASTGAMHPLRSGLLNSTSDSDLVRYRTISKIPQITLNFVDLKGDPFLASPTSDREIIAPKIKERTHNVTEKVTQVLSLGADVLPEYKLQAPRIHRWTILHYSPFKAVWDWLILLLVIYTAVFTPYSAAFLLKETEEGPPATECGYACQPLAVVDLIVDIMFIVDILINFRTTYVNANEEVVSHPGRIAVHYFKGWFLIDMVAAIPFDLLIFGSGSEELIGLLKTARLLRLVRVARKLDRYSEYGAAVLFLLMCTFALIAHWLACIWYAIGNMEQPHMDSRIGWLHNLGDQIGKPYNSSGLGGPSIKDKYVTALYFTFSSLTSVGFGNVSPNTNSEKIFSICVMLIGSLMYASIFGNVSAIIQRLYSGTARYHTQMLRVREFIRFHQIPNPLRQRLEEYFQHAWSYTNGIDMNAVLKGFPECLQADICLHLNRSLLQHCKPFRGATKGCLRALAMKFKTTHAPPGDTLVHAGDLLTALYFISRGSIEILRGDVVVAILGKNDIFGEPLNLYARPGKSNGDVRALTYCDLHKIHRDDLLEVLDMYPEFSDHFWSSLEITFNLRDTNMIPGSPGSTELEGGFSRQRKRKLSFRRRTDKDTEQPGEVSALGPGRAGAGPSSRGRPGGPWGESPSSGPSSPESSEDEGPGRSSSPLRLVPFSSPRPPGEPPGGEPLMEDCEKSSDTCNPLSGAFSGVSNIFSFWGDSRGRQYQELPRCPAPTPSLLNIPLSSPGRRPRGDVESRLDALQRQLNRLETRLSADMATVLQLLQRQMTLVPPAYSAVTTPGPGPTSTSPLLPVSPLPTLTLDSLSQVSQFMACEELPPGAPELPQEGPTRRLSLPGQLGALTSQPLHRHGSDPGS
row,SMILES,"hERG current change (%, negative = inhibition) at 10uM"
1,CCCCCN(C(=O)CCC(=O)OCC(=O)N1CCCCC1)c1c(N)n(CCCC)c(=O)[nH]c1=O,-3.24%
2,Cc1ccc(S(=O)(=O)N2CCCCC2C(=O)N2CCN(C)CC2)cc1 (stereo not shown),18.1%
3,CC1CC(=O)N(CC(=O)Nc2cccc(Cl)c2)c2ccccc2S1(=O)=O (stereo not shown),-17.2%
4,CC1CCN(C(=O)c2ccc(CS(=O)(=O)Cc3ccccc3)cc2)CC1,-33.6%
5,c1coc(-c2nn3c(-c4ccco4)nnc3s2)c1,-17.6%
6,COc1ccc(C(c2oc(CO)cc(=O)c2O)c2oc(CO)cc(=O)c2O)cc1,19.5%
7,CCN1CCN(S(=O)(=O)c2ccc(Cl)c(C(=O)NC(C)(C)C)c2)CC1,-16.5%
8,COc1ccc(NS(=O)(=O)c2coc(C(N)=O)c2)cc1Cl,3.54%
9,Cc1cc(NC(=O)CN2C(=O)NC3(CCCCC3)C2=O)no1,-3.14%
10,CCCCOc1ccc(C(=O)Nc2ccc(CN3CCOCC3)cc2)cc1,13.5%
11,COC(=O)Cc1c(C)c2c(OCc3nn[nH]n3)cc(C)cc2oc1=O,11.4%
12,CCN(CC)CCNC(=O)c1ccc(NS(=O)(=O)c2ccc3c(c2)OCCO3)cc1,40.1%
13,O=C(COc1ccc2ccccc2c1)NCCn1ccc2ccccc21,12.4%
14,O=c1[nH]c(=O)n(-c2cccc(Cl)c2)c(O)c1C=NCCCN1CCOCC1,-1.44%
15,O=C(NCc1ccccn1)C1CC(c2ccccc2Cl)=NO1 (stereo not shown),14.1%
16,Cc1ccc(SCC(=O)NCCCN2CCOCC2)cc1,15%
17,Cc1[nH]c(-c2ccc3c(c2)OCO3)nc1C(=O)O,12.3%
18,CCCCOC(=O)Nc1ccc(S(=O)(=O)Nc2ncccn2)cc1,5.77%
19,O=c1cc(Cn2ccnc2)c2cc3c(cc2o1)CCC3,-5.54%
20,Cc1sc2nc(CN(CCc3ccccc3)C(=O)c3ccco3)[nH]c(=O)c2c1C,8.85%
21,CCc1cc(CNC(=O)c2ccc(OC)c(OC3CCN(C(C)C)CC3)c2)on1,-4.13%
22,CCn1c(C)c(C)c2cc(C(=O)NCCc3ccco3)ccc21,4.52%

row,SMILES,"hERG current change (%, negative = inhibition) at 10uM"
1,Cc1ccc(NC(=O)N(C2CCCCC2)C(C)c2cccnc2)cc1C (stereo not shown),11.4%
2,Cn1c(COc2ccc(Cl)cc2)nnc1SCC(=O)NC1CCCC1,-33.2%
3,O=C(Nc1ccc2c(c1)OCCO2)C1CCCC1,3.23%
4,O=C(NCC(=O)N1CCN(C(=O)c2ccccc2)CC1)c1ccc(Cl)cc1Cl,-31.2%
5,CCOC(=O)C1CCN(C(=O)C2CCN(C(=O)c3ccc([N+](=O)[O-])cc3)CC2)CC1,-69.3%
6,COC(=O)c1cccc(NC(=S)Nc2ccc(Cl)c(Cl)c2)c1,7.76%
7,Cc1cccc(CN2CCN(Cc3cccc(-n4cccn4)c3)CC2CCO)n1 (stereo not shown),-45.7%
8,COc1cc(NC(=O)c2cc(C)nc3ccccc23)cc(OC)c1OC,27.5%
9,COc1cc(CN(C)CC2CCCN(CCc3ccc(F)cc3)C2)c(Cl)cc1O (stereo not shown),-30%
10,O=S(=O)(Nc1nc2cc3c(cc2nc1Cl)OCCO3)c1ccccc1,-15.5%
11,N#Cc1c(-c2ccc([N+](=O)[O-])cc2)nc2n(c1=O)CCS2,-28.7%
12,COc1ccc(S(=O)(=O)N(C)C)cc1NC(=O)CN1C(=O)NC2(CCCC2)C1=O,15.5%
13,CCOc1cc(C=C2C(=O)c3ccccc3C2=O)ccc1OCC(=O)Nc1ccc(C)cc1,34.5%
14,O=C(NC1CCN(Cc2ccccc2)CC1)c1c(F)cccc1F,-24.4%
15,N#CCCN/N=C(/Cc1nc2ccccc2[nH]1)c1cccc(Cl)c1,6.63%
16,CSc1ccccc1NC(=O)c1cc(C2CC2)on1,-32%
17,CCC1Sc2ccccc2N(CC(=O)NCCC(C)C)C1=O (stereo not shown),1.77%
18,CC1(C)CC(=O)C(N=Nc2cccc(S(=O)(=O)N3CCOCC3)c2)=C(O)C1,-3.93%
19,Cc1cc(NC(=O)c2cccs2)ncc1NC(=O)c1cccc(F)c1,1.64%
20,CC1=C(C(=O)Nc2cc(C(=O)N(C)Cc3ccccc3)ccc2C)SCCO1,-1.7%
21,O=[N+]([O-])c1ccc(N2CCCCCC2)c2ncccc12,5.54%
22,O=C(NC1CCN(Cc2ccccc2)CC1)c1ccc2c(c1)[nH]c(=O)n2Cc1ccc(F)cc1,-21.8%

row,SMILES,"hERG current change (%, negative = inhibition) at 10uM"
1,CC(=O)c1ccc(S(=O)(=O)N2CCCC(N(C)CCc3ccccc3)C2)cc1 (stereo not shown),-81.2%
2,COc1cc(CN2CCN(Cc3ccc(C)cc3)CC2)c([N+](=O)[O-])cc1OC.O=C(O)C(=O)O,-77.2%
3,O=C1CC(N2CCC(C(=O)N3CCCCC3)CC2)C(=O)N1 (stereo not shown),5.55%
4,CCC(O)(c1ccc(OC)cc1)C(CN1CCOCC1)c1ccccc1.Cl (stereo not shown),-20.7%
5,CCNC(=S)N(Cc1ccc(OC)cc1)C1CC(=O)N(c2ccc(OCC)cc2)C1=O (stereo not shown),4.68%
6,O=C(COC(=O)c1cc(S(=O)(=O)N2CCOCC2)ccc1F)NC1CCCCC1,-2.25%
7,O=C(CNC(=O)c1ccco1)NCC(=O)OCc1c(F)cccc1Cl,4.47%
8,CCS(=O)(=O)N1CCC(C(=O)Oc2ccccc2)CC1,2.27%
9,COc1cccc(C(=O)N2CCN(Cc3ccc4c(c3)OCO4)CC2)c1OC,-5.04%
10,CN(CC(O)CN1CCOCC1)S(=O)(=O)[O-].[Na+] (stereo not shown),25.3%
11,CC1S/C(=C(\C#N)C(=O)NCc2ccco2)N(Cc2ccco2)C1=O (stereo not shown),7.2%
12,COc1ccc(C2=NN(S(C)(=O)=O)C(c3cccs3)C2)cc1OC (stereo not shown),12.6%
13,CC1CN(CC(O)COC(c2ccc(Cl)cc2)c2ccc(Cl)cc2)CC(C)O1.Cl (stereo not shown),-71.9%
14,Cl.O=C(CSc1ncn[nH]1)Nc1ccc([N+](=O)[O-])cc1Br,9.19%
15,N#CC12CCCCC1CC1CCCCC1(C#N)N2Cc1ccccn1 (stereo not shown),4.58%
16,O=C(NC1CCCC1)C(c1cccnc1)N(C(=O)c1csnn1)C1CCCC1 (stereo not shown),13%
17,C=C(C)c1cccc(C(C)(C)NC(=O)NCCCN2CCCC2=O)c1,15.6%
18,CCOC(=O)c1cc2c(=O)n3cccc(C)c3nc2n(CCOC)c1=NC(C)=O,-16.3%
19,CC[n+]1c(/C=C(/C)SC)sc2ccccc21.COS(=O)(=O)[O-],5.99%
20,O=[N+]([O-])c1cccnc1N1CCOCC1,14.3%
21,Cc1ccccc1C(=O)NNC(=O)C1CCN(C(=O)Nc2ccccc2)CC1,24.6%
22,Cc1ccccc1Nc1c(-c2ccncc2)nc2ccc(Br)cn12,-31%

row,SMILES,"hERG current change (%, negative = inhibition) at 10uM"
1,CC(=O)Nc1cc(C(F)(F)F)ccc1OCC1CCCO1 (stereo not shown),-11.7%
2,COC(=O)Cc1n[nH]c(=O)c2ccccc12,7.54%
3,COC(=O)c1ccc(NC(=O)CSCC(=O)OCC(=O)c2ccc(Br)cc2)cc1,7.85%
4,CCSc1nnc(NC(=O)COc2cccc3ccccc23)s1,19.6%
5,Cc1ccc(OCc2nnc(SCC(=O)Nc3ccc4c(c3)OCCO4)n2Cc2ccco2)cc1,6.31%
6,Cc1cc(=O)oc2c3c(cc(OCC(=O)NCC4CCC(C(=O)O)CC4)c12)OC(C)(C)CC3 (stereo not shown),-7.94%
7,Cc1cc(C)c(C)c(S(=O)(=O)N2CCN(C(=O)c3ccccn3)CC2)c1C,-26.3%
8,Cc1cc(C)c(C#N)c(SCc2ccc(F)cc2)n1,16%
9,COc1ccccc1C(=O)Oc1cc(C)[nH]c(=O)c1[N+](=O)[O-],2.32%
10,COc1ccc(CCC(=O)NCCc2cnc[nH]2)cc1,12.5%
11,CCOC(=O)N1CCN(CCC(=O)Nc2cc(C)ccc2OC)CC1.Cl,1.07%
12,CCc1nc(C)c(C#N)c2cc(OC)c(OC)cc12,1.21%
13,CC1CCCN(C(=O)CSc2nnc(-c3cccnc3)n2C2CCCCC2)C1 (stereo not shown),-13.4%
14,CN(Cc1cc2ccccc2[nH]c1=O)S(C)(=O)=O,-6.06%
15,CCCn1c(C)cc(/C=C(\C#N)C(=O)OCC(=O)NC(=O)NCC)c1C,-3.94%
16,CC1(C)CC(=O)C=C(Nc2cccc(C(F)(F)F)c2)C1,-3.01%
17,O=C(CN1C(=O)NC2(CCCC2)C1=O)N1CCN(S(=O)(=O)c2cccc(C(F)(F)F)c2)CC1,-5.43%
18,C[C@@H](C(=O)Nc1ccc2ccccc2c1)[C@@H]1C[C@@]1(C)[C@@H](NC(=O)OCc1ccccc1)c1ccccc1,11.5%
19,COc1ccc(C(=O)Nc2n[nH]c(-c3ccncc3)n2)cc1,2.24%
20,COc1ccccc1N1CCN(C(=O)c2cccc(S(=O)(=O)NCc3cccnc3)c2)CC1,-6.86%
21,COc1cc(OC)cc(-c2c(-c3cccs3)c3cc(-c4ccc5[nH]ccc5c4)ccc3n2C)c1,11.8%
22,COc1ccc(CCNC(=O)COC(=O)CNS(=O)(=O)c2ccc(SC)c([N+](=O)[O-])c2)cc1,8.61%
